Measured values reported in the supplement of paper PMC10126150.
Values marked as one replicate rest on one cluster of the flow cell; about a third of the high ones do not repeat.
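Further: ATP exposure 15 min at 22 °C before imaging.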

What follows are sequences tested on ATP (assay: switch fluorescence ratio, 500 uM ATP over buffer (Cy3 cluster intensity, sum of 5 cycles each) (fold (ratio)); higher = stronger signal-on switching upon ATP binding; sequences stand for … in TCGTCGGCAGCGTCAGATGTGTATAAGAGACAGTTTTTTTTTTTTTTTTTTTTTTTTT…TC). Conditions: aptamer strand: ATP DNA aptamer (quencher-CACCTGGGGGAGTATTGCGGAGGAAGG + anchor), 100 nM annealed; ATP concentration: 500 uM; one replicate.
In short: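 Cy3-labelled switching-strand clusters on a modified Illumina MiSeq flow-cell were annealed to 100 nM quencher-labelled ATP aptamer and imaged first in selection buffer, then after 15 min with 500 uM ATP at 22 °C. NaOH stripping and re-annealing separated each of five buffer/ATP cycles, and clusters outside 100-1000 RFU were excluded. The fluorescence ratio sums target-cycle Cy3 intensity over buffer-cycle Cy3 intensity per cluster and averages it per switch-domain sequence.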
In the case of AGGCTTTCG, the switch fluorescence ratio is reported as 0.962. AGGGAAAAGT was tested, and the switch fluorescence ratio was 1.02. Work on AGGGAAGCAC yielded a switch fluorescence ratio of 1.16. AGGGAATGGA showed a switch fluorescence ratio of 1.03. For AGGGAATTTT, the switch fluorescence ratio was 0.951. In the case of AGGGACATAA, the switch fluorescence ratio is reported as 1.08. AGGGACTGAG was tested, and the switch fluorescence ratio was 0.926. With AGGGATAGAA the switch fluorescence ratio was 1.03. AGGGATAGTG gave a switch fluorescence ratio of 0.97. With AGGGATCCGG the switch fluorescence ratio was 0.989. AGGGATGCTC gave a switch fluorescence ratio of 0.994. AGGGCACAGG showed a switch fluorescence ratio of 1.09. In the case of AGGGCACCGT, the switch fluorescence ratio is reported as 0.968. Work on AGGGCACGC yielded a switch fluorescence ratio of 0.994. Sequence AGGGCATCTG has a switch fluorescence ratio of 1. In the case of AGGGCCAACT, the switch fluorescence ratio is reported as 0.976. AGGGCCACGA gave a switch fluorescence ratio of 0.997. For AGGGCCGAGA, the switch fluorescence ratio was 1.01. For AGGGCCGTCG, the switch fluorescence ratio was 0.999. Sequence AGGGCCTGGT has a switch fluorescence ratio of 1.01. With AGGGCGATGC the switch fluorescence ratio was 1.13. Work on AGGGCGGGG yielded a switch fluorescence ratio of 0.955. Work on AGGGCGTTC yielded a switch fluorescence ratio of 1. Sequence AGGGCTACTG has a switch fluorescence ratio of 0.926. AGGGCTCTT showed a switch fluorescence ratio of 0.943. AGGGCTGAGT was tested, and the switch fluorescence ratio was 1.03. Work on AGGGCTGGCA yielded a switch fluorescence ratio of 0.966. For AGGGCTTGCG, the switch fluorescence ratio was 0.999. AGGGCTTT was tested, and the switch fluorescence ratio was 0.965. Work on AGGGGAGAGC yielded a switch fluorescence ratio of 0.99. AGGGGAGGA showed a switch fluorescence ratio of 1.03. AGGGGCGAGG was tested, and the switch fluorescence ratio was 0.983. AGGGGGAGCG was tested, and the switch fluorescence ratio was 1.06. AGGGGTATAA showed a switch fluorescence ratio of 0.942. With AGGGGTCATA the switch fluorescence ratio was 0.975. With AGGGGTTCCC the switch fluorescence ratio was 1. With AGGGGTTTAA the switch fluorescence ratio was 1.01. AGGGTAATAA showed a switch fluorescence ratio of 0.999. Work on AGGGTAGCGT yielded a switch fluorescence ratio of 1.02. For AGGGTCATTA, the switch fluorescence ratio was 1.04. AGGGTCCTCG showed a switch fluorescence ratio of 0.979. With AGGGTGTAGC the switch fluorescence ratio was 1.01. Sequence AGGGTGTCGG has a switch fluorescence ratio of 1. For AGGGTGTGTA, the switch fluorescence ratio was 1.01. For AGGGTTCCTC, the switch fluorescence ratio was 1.09. AGGGTTGCAA was tested, and the switch fluorescence ratio was 1.01. AGGGTTGCAC was tested, and the switch fluorescence ratio was 1. For AGGGTTTATG, the switch fluorescence ratio was 0.978. Work on AGGGTTTCTA yielded a switch fluorescence ratio of 0.987. Work on AGGTAACCCC yielded a switch fluorescence ratio of 1.11. AGGTAAGGAT gave a switch fluorescence ratio of 1.03. In the case of AGGTACTAAT, the switch fluorescence ratio is reported as 1. AGGTAGACAG showed a switch fluorescence ratio of 0.993. In the case of AGGTAGATAC, the switch fluorescence ratio is reported as 1.1. With AGGTAGGAGC the switch fluorescence ratio was 1.04. AGGTAGTCAT was tested, and the switch fluorescence ratio was 1.05. AGGTATAGT was tested, and the switch fluorescence ratio was 0.953. AGGTATCACG gave a switch fluorescence ratio of 0.965. AGGTATCGTA gave a switch fluorescence ratio of 0.987. AGGTCAAGCA was tested, and the switch fluorescence ratio was 1.02. AGGTCATCCA gave a switch fluorescence ratio of 0.99. In the case of AGGTCATGCT, the switch fluorescence ratio is reported as 1.01. Sequence AGGTCATTGG has a switch fluorescence ratio of 0.986. AGGTCCCAGG was tested, and the switch fluorescence ratio was 2.47. AGGTCCGCTG gave a switch fluorescence ratio of 1.02. AGGTCGGCGG showed a switch fluorescence ratio of 1.05. AGGTGAATAT was tested, and the switch fluorescence ratio was 1.03. AGGTGACCTT was tested, and the switch fluorescence ratio was 1.06. Work on AGGTGATGCG yielded a switch fluorescence ratio of 1. AGGTGCACA gave a switch fluorescence ratio of 0.977. With AGGTGCAGA the switch fluorescence ratio was 0.998. With AGGTGCCATC the switch fluorescence ratio was 0.957. With AGGTGGAGTT the switch fluorescence ratio was 0.96. Work on AGGTGGTAT yielded a switch fluorescence ratio of 0.977. Sequence AGGTGTCGT has a switch fluorescence ratio of 0.994. In the case of AGGTGTCGTG, the switch fluorescence ratio is reported as 0.998. For AGGTGTTACA, the switch fluorescence ratio was 0.999. Sequence AGGTTATGCG has a switch fluorescence ratio of 1.01. AGGTTCACGA gave a switch fluorescence ratio of 1.03. For AGGTTCGGTA, the switch fluorescence ratio was 0.973. AGGTTGATCG gave a switch fluorescence ratio of 1. Sequence AGGTTGCGTC has a switch fluorescence ratio of 1. Work on AGGTTGGGAG yielded a switch fluorescence ratio of 1.02. Sequence AGGTTGGGGA has a switch fluorescence ratio of 1.01. With AGGTTTAGAA the switch fluorescence ratio was 0.953. AGGTTTAGAT showed a switch fluorescence ratio of 1.03. AGGTTTTCGA gave a switch fluorescence ratio of 0.951. AGGTTTTG gave a switch fluorescence ratio of 1.03. In the case of AGTAACGCAA, the switch fluorescence ratio is reported as 4.36. AGTAAGAAGA was tested, and the switch fluorescence ratio was 1.02. AGTAAGGTGC gave a switch fluorescence ratio of 1.28. With AGTAATCAC the switch fluorescence ratio was 1.15. In the case of AGTAATGCT, the switch fluorescence ratio is reported as 1.19. With AGTAATTAGC the switch fluorescence ratio was 1.03. Sequence AGTACAGTTT has a switch fluorescence ratio of 1.06. AGTACATCTT was tested, and the switch fluorescence ratio was 1.09. AGTACCGTGC gave a switch fluorescence ratio of 1.05. For AGTACGTCAA, the switch fluorescence ratio was 1.35. AGTACGTGGC was tested, and the switch fluorescence ratio was 1.06. Work on AGTACGTTC yielded a switch fluorescence ratio of 1.01. For AGTAGAGGAA, the switch fluorescence ratio was 0.96. In the case of AGTAGATGAC, the switch fluorescence ratio is reported as 0.997. With AGTAGATGGT the switch fluorescence ratio was 0.991. Work on AGTAGGGTAA yielded a switch fluorescence ratio of 0.971. For AGTAGGTGG, the switch fluorescence ratio was 0.916. In the case of AGTAGGTTCC, the switch fluorescence ratio is reported as 0.991. For AGTAGTATAG, the switch fluorescence ratio was 1.02. In the case of AGTAGTTAAC, the switch fluorescence ratio is reported as 0.977. AGTATAAGGC gave a switch fluorescence ratio of 0.982. For AGTATAAGGT, the switch fluorescence ratio was 0.989. For AGTATACCTT, the switch fluorescence ratio was 1.1. With AGTATAGTG the switch fluorescence ratio was 0.966. For AGTATCAGTG, the switch fluorescence ratio was 0.979. In the case of AGTATCCGCG, the switch fluorescence ratio is reported as 1.1. For AGTATCCGCT, the switch fluorescence ratio was 0.969. AGTATGACCT gave a switch fluorescence ratio of 1. With AGTATGGCGT the switch fluorescence ratio was 0.977. Sequence AGTATGTTCT has a switch fluorescence ratio of 0.98. Sequence AGTATTCCGG has a switch fluorescence ratio of 0.988. AGTATTGGAA was tested, and the switch fluorescence ratio was 0.953. AGTCAAGGT was tested, and the switch fluorescence ratio was 1.02. Sequence AGTCACAACG has a switch fluorescence ratio of 1.04. In the case of AGTCAGGGAC, the switch fluorescence ratio is reported as 1. AGTCATAGAA gave a switch fluorescence ratio of 1.02. Sequence AGTCATGCGA has a switch fluorescence ratio of 1.03. With AGTCCATAGG the switch fluorescence ratio was 1.01. In the case of AGTCCGGAGG, the switch fluorescence ratio is reported as 1.05. For AGTCGACTCG, the switch fluorescence ratio was 0.997. Sequence AGTCGCGCCG has a switch fluorescence ratio of 1. AGTCGCGGGG showed a switch fluorescence ratio of 1.03. AGTCGGGTAT showed a switch fluorescence ratio of 0.999. AGTCGGGTCG showed a switch fluorescence ratio of 1.22. AGTCGGTCAC gave a switch fluorescence ratio of 1.01. AGTCGGTCCG gave a switch fluorescence ratio of 0.955. AGTCGGTCTC gave a switch fluorescence ratio of 1. For AGTCGTAAAA, the switch fluorescence ratio was 0.991. AGTCGTCGCA was tested, and the switch fluorescence ratio was 0.996. For AGTCGTTCCG, the switch fluorescence ratio was 0.977. AGTCGTTCTT showed a switch fluorescence ratio of 0.941. AGTCTACCAG showed a switch fluorescence ratio of 1.02. AGTCTACTGC showed a switch fluorescence ratio of 1.1. Work on AGTCTAGGTA yielded a switch fluorescence ratio of 0.987. AGTCTATGGG was tested, and the switch fluorescence ratio was 0.983. AGTCTCTATG gave a switch fluorescence ratio of 1.02. Work on AGTCTGCACC yielded a switch fluorescence ratio of 1.19. Work on AGTCTGGGTC yielded a switch fluorescence ratio of 1.01. In the case of AGTCTGGTGG, the switch fluorescence ratio is reported as 1.19. For AGTCTGTTGA, the switch fluorescence ratio was 1.02. In the case of AGTCTTAAGA, the switch fluorescence ratio is reported as 0.942. Work on AGTCTTGGCG yielded a switch fluorescence ratio of 1.02. With AGTGAACATG the switch fluorescence ratio was 1.01. Sequence AGTGAATACA has a switch fluorescence ratio of 0.992. In the case of AGTGACCCAC, the switch fluorescence ratio is reported as 1.16. Work on AGTGAGAATA yielded a switch fluorescence ratio of 1. Work on AGTGAGTGGT yielded a switch fluorescence ratio of 0.935. Sequence AGTGATGGAT has a switch fluorescence ratio of 0.983. Work on AGTGATTAAT yielded a switch fluorescence ratio of 0.968. For AGTGCACTT, the switch fluorescence ratio was 0.998. AGTGCACTTT gave a switch fluorescence ratio of 0.994. For AGTGCCTAAG, the switch fluorescence ratio was 1.01. AGTGCTCAGT showed a switch fluorescence ratio of 0.986. In the case of AGTGCTGGTG, the switch fluorescence ratio is reported as 0.998. Work on AGTGGACGTT yielded a switch fluorescence ratio of 1.01. AGTGGCAAGA was tested, and the switch fluorescence ratio was 1.02. Sequence AGTGGCGACG has a switch fluorescence ratio of 0.98. Work on AGTGGTAAA yielded a switch fluorescence ratio of 1.02. With AGTGGTCGTG the switch fluorescence ratio was 1.02. Work on AGTGTAACGT yielded a switch fluorescence ratio of 1.03. Sequence AGTGTAAGAG has a switch fluorescence ratio of 0.987. AGTGTAAGCA was tested, and the switch fluorescence ratio was 1.03. Sequence AGTGTACGGC has a switch fluorescence ratio of 1.06. In the case of AGTGTAGTGC, the switch fluorescence ratio is reported as 1.04. Sequence AGTGTATGCC has a switch fluorescence ratio of 1.06. For AGTGTATGCG, the switch fluorescence ratio was 1.14. AGTGTCATAT gave a switch fluorescence ratio of 1.02. AGTGTCGTTA showed a switch fluorescence ratio of 1.02. For AGTGTCTATC, the switch fluorescence ratio was 0.961. For AGTGTCTCGC, the switch fluorescence ratio was 1. Sequence AGTGTGCATA has a switch fluorescence ratio of 1.02. With AGTGTGCGGG the switch fluorescence ratio was 0.924. Sequence AGTGTGGAGG has a switch fluorescence ratio of 1.02. AGTGTTCGAA showed a switch fluorescence ratio of 1.03. In the case of AGTGTTGGGA, the switch fluorescence ratio is reported as 0.986. Sequence AGTTAACAGA has a switch fluorescence ratio of 0.997. Sequence AGTTAAGTCG has a switch fluorescence ratio of 1.04. AGTTACACGC was tested, and the switch fluorescence ratio was 1.03. AGTTACTGCC showed a switch fluorescence ratio of 1.05. Sequence AGTTAGACCA has a switch fluorescence ratio of 0.999. With AGTTAGCTAG the switch fluorescence ratio was 1.01. Work on AGTTAGTGCA yielded a switch fluorescence ratio of 0.974. Sequence AGTTATAT has a switch fluorescence ratio of 0.984. AGTTATTACT showed a switch fluorescence ratio of 1. With AGTTATTGG the switch fluorescence ratio was 1.04. For AGTTATTGTT, the switch fluorescence ratio was 0.981. AGTTCACACA was tested, and the switch fluorescence ratio was 1.05. Sequence AGTTCCCTGC has a switch fluorescence ratio of 1.04. AGTTCGGCTT gave a switch fluorescence ratio of 1.05. Work on AGTTCGGGAT yielded a switch fluorescence ratio of 0.976. AGTTCGTGCT showed a switch fluorescence ratio of 1. Sequence AGTTCTGCAG has a switch fluorescence ratio of 1. In the case of AGTTCTGGGG, the switch fluorescence ratio is reported as 1.02.
